Test results as given in the supplement of paper PMC10369915.
This is one part of the list. Rule as the data show it: active = 3.2 or more and inactive = the rest. The signal is at background level for most entries.

Target: SHP2 C-SH2 domain E139D
Assay: enrichment score (SH2-bound / input frequency) (ratio); bacterial display of known human phosphotyrosine sites (pTyr-Var adds point mutants) read by sequencing; higher = stronger binding; tyrosines were phosphorylated by kinases first
Details: peptide library: pTyr-Var
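Also: displayed peptides selected on beads carrying the immobilized SH2 domain, with library peptides lacking any tyrosine serving as negative controls.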

Enrichment score, inactive:
HLATEYVFSDF [PANX1_Y10_Q5H] 1.01, RTCSSYTIEKI [PARP15_Y520_A521T] 0.532, SILAVYSKDIY [PANK2_Y400_N404I] 1.74, KILGRYYETGS [PAX2_Y72] 1.57, HFMKLYEEKTG [PARP1_Y618] 1.21, EDASEYFENYI [PARP4_Y214] 0.463, EDASEYYENYI [PARP4_Y214_F215Y] 0.65, KILGTYYETGS [PAX2_Y72_R71T] 0.823, KILGRYYETSS [PAX2_Y72_G76S] 1.23, FSKDNYKRVTG [PANK2_Y405_YF] 0.512, EFFENYIEELK [PARP4_Y218_F215Y_YF] 1.14, YHLLPYTVRAM [PARS2_Y93] 2.23, SILTVYSKDNF [PANK2_Y400_A398T_YF] 0.851, EASGIYVKSVI [PATJ_Y396_I400V] 0.689, KIPGRYFETGS [PAX2_Y72_L69P_YF] 1.14, HKDNNYVSMWF [PAPOLG_Y432] 0.774, YHLLPYTIRAM [PARS2_Y93_V95I] 1.86, RTCSSYAIEKI [PARP15_Y520] 1.04, IPGRYYETGSI [PAX2_Y73_L69P] 0.974

Target: SHP2 C-SH2 domain wild-type
Assay: as above
Details: peptide library: pTyr-Var

Enrichment score, inactive:
HLATEYVFSDF [PANX1_Y10_Q5H] 0.927, RTCSSYTIEKI [PARP15_Y520_A521T] 1.05, SILAVYSKDIY [PANK2_Y400_N404I] 1.58, KILGRYYETGS [PAX2_Y72] 1.03, HFMKLYEEKTG [PARP1_Y618] 1.31, EDASEYFENYI [PARP4_Y214] 0.517, EDASEYYENYI [PARP4_Y214_F215Y] 0.531, KILGTYYETGS [PAX2_Y72_R71T] 0.909, KILGRYYETSS [PAX2_Y72_G76S] 0.891, FSKDNYKRVTG [PANK2_Y405_YF] 0.474, EFFENYIEELK [PARP4_Y218_F215Y_YF] 0.919, YHLLPYTVRAM [PARS2_Y93] 2.31, SILTVYSKDNF [PANK2_Y400_A398T_YF] 0.833, EASGIYVKSVI [PATJ_Y396_I400V] 0.64, KIPGRYFETGS [PAX2_Y72_L69P_YF] 0.958, HKDNNYVSMWF [PAPOLG_Y432] 0.81, YHLLPYTIRAM [PARS2_Y93_V95I] 2.19, RTCSSYAIEKI [PARP15_Y520] 1.11, IPGRYYETGSI [PAX2_Y73_L69P] 1.04

Target: SHP2 N-SH2 domain L43F
Assay: as above
Details: peptide library: pTyr-Var

Enrichment score, inactive:
HLATEYVFSDF [PANX1_Y10_Q5H] 0.893, RTCSSYTIEKI [PARP15_Y520_A521T] 0.861, SILAVYSKDIY [PANK2_Y400_N404I] 2.15, KILGRYYETGS [PAX2_Y72] 1.23, HFMKLYEEKTG [PARP1_Y618] 1.34, EDASEYFENYI [PARP4_Y214] 0.485, EDASEYYENYI [PARP4_Y214_F215Y] 0.523, KILGTYYETGS [PAX2_Y72_R71T] 0.77, KILGRYYETSS [PAX2_Y72_G76S] 1.07, FSKDNYKRVTG [PANK2_Y405_YF] 0.389, EFFENYIEELK [PARP4_Y218_F215Y_YF] 1.04, YHLLPYTVRAM [PARS2_Y93] 1.99, SILTVYSKDNF [PANK2_Y400_A398T_YF] 0.732, EASGIYVKSVI [PATJ_Y396_I400V] 0.815, KIPGRYFETGS [PAX2_Y72_L69P_YF] 0.771, HKDNNYVSMWF [PAPOLG_Y432] 1.47, YHLLPYTIRAM [PARS2_Y93_V95I] 2.24, RTCSSYAIEKI [PARP15_Y520] 0.811, IPGRYYETGSI [PAX2_Y73_L69P] 1.12

Target: SHP2 N-SH2 domain T42A
Assay: as above
Details: peptide library: pTyr-Var

Enrichment score, inactive:
HLATEYVFSDF [PANX1_Y10_Q5H] 1.08, RTCSSYTIEKI [PARP15_Y520_A521T] 0.647, SILAVYSKDIY [PANK2_Y400_N404I] 1.48, KILGRYYETGS [PAX2_Y72] 1.3, HFMKLYEEKTG [PARP1_Y618] 0.913, EDASEYFENYI [PARP4_Y214] 0.479, EDASEYYENYI [PARP4_Y214_F215Y] 0.509, KILGTYYETGS [PAX2_Y72_R71T] 0.646, KILGRYYETSS [PAX2_Y72_G76S] 0.935, FSKDNYKRVTG [PANK2_Y405_YF] 0.367, EFFENYIEELK [PARP4_Y218_F215Y_YF] 1.12, YHLLPYTVRAM [PARS2_Y93] 1.82, SILTVYSKDNF [PANK2_Y400_A398T_YF] 0.851, EASGIYVKSVI [PATJ_Y396_I400V] 0.554, KIPGRYFETGS [PAX2_Y72_L69P_YF] 1.14, HKDNNYVSMWF [PAPOLG_Y432] 1.61, YHLLPYTIRAM [PARS2_Y93_V95I] 1.89, RTCSSYAIEKI [PARP15_Y520] 0.671, IPGRYYETGSI [PAX2_Y73_L69P] 0.841

Target: SHP2 N-SH2 domain T52S
Assay: as above
Details: peptide library: pTyr-Var

Enrichment score, inactive:
HLATEYVFSDF [PANX1_Y10_Q5H] 1.04, RTCSSYTIEKI [PARP15_Y520_A521T] 0.386, SILAVYSKDIY [PANK2_Y400_N404I] 1.75, KILGRYYETGS [PAX2_Y72] 1.26, HFMKLYEEKTG [PARP1_Y618] 1.2, EDASEYFENYI [PARP4_Y214] 0.633, EDASEYYENYI [PARP4_Y214_F215Y] 0.576, KILGTYYETGS [PAX2_Y72_R71T] 0.912, KILGRYYETSS [PAX2_Y72_G76S] 1.22, FSKDNYKRVTG [PANK2_Y405_YF] 0.409, EFFENYIEELK [PARP4_Y218_F215Y_YF] 0.996, YHLLPYTVRAM [PARS2_Y93] 2.09, SILTVYSKDNF [PANK2_Y400_A398T_YF] 0.904, EASGIYVKSVI [PATJ_Y396_I400V] 0.799, KIPGRYFETGS [PAX2_Y72_L69P_YF] 0.934, HKDNNYVSMWF [PAPOLG_Y432] 1.5, YHLLPYTIRAM [PARS2_Y93_V95I] 1.97, RTCSSYAIEKI [PARP15_Y520] 0.846, IPGRYYETGSI [PAX2_Y73_L69P] 1.04

Target: SHP2 N-SH2 domain wild-type
Assay: as above
Details: peptide library: pTyr-Var

Enrichment score, inactive:
HLATEYVFSDF [PANX1_Y10_Q5H] 0.957, RTCSSYTIEKI [PARP15_Y520_A521T] 0.904, SILAVYSKDIY [PANK2_Y400_N404I] 1.7, KILGRYYETGS [PAX2_Y72] 1.56, HFMKLYEEKTG [PARP1_Y618] 1.38, EDASEYFENYI [PARP4_Y214] 0.437, EDASEYYENYI [PARP4_Y214_F215Y] 0.547, KILGTYYETGS [PAX2_Y72_R71T] 0.879, KILGRYYETSS [PAX2_Y72_G76S] 1.22, FSKDNYKRVTG [PANK2_Y405_YF] 0.441, EFFENYIEELK [PARP4_Y218_F215Y_YF] 1.19, YHLLPYTVRAM [PARS2_Y93] 1.65, SILTVYSKDNF [PANK2_Y400_A398T_YF] 0.716, EASGIYVKSVI [PATJ_Y396_I400V] 0.866, KIPGRYFETGS [PAX2_Y72_L69P_YF] 0.724, HKDNNYVSMWF [PAPOLG_Y432] 0.6, YHLLPYTIRAM [PARS2_Y93_V95I] 1.87, RTCSSYAIEKI [PARP15_Y520] 0.916, IPGRYYETGSI [PAX2_Y73_L69P] 1.01
